Assay results from ChEMBL document CHEMBL4888484, “Replenishing the malaria drug discovery pipeline: Screening and hit evaluation of the MMV Hit Generation Library 1 (HGL1) against asexual blood stage Plasmodium falciparum ,using a nano luciferase reporter read-out” (2022).
Out of some 150,000 compounds screened, about 540 (0.36%) showed an effect of 50% or more. The list shows a part of the results.

What follows are compounds tested on Plasmodium falciparum (assay: Primary screen in NF54 nanoGlo assay, in single point, at 2uM, 72h; a lower Z score goes with more inhibition). Settings: timepoint 72 hour.
Assay type: functional, Erythrocyte

Compound | % Inhibition [%] | Z score
N[C@@H]1CCN(C(=O)c2cccnc2Oc2cccc(Br)c2)C1 | -12 | 1.38
CCc1nnc2c(S(=O)(=O)N(Cc3cc(F)cc(F)c3)c3ccccc3)cccn12 | -30 | 3.87
O=C(NCC1CCN(C(=O)c2ccoc2)CC1)c1ccccc1Cl | -6 | 0.91
CC(C)(C)c1ccc(-c2nc(Nc3cccc(C(=O)O)c3)c3ccccc3n2)cc1 | -11 | 1.7
COc1cccc2cc(C(=O)N3CCC(C(=O)NCc4nc(C)no4)CC3)oc12 | -3 | 0.42
CN(C)c1ccc(Nc2c(-c3cccs3)nc3ccccn23)cc1 | -29 | 3.41
CC1CN(S(=O)(=O)N(CC2CC2)CC2CC2)C(C)CO1 (stereo not given) | -3 | 0.37
O=C(NC1CCc2[nH]cnc2C1)N[C@@H]1CCCc2ccccc21 (stereo not given in full) | 4 | -0.51
COc1ccnc(C(=O)N2CCOC3CCCCC32)c1 (stereo not given) | -7 | 0.83
CN(C)S(=O)(=O)N1C[C@H]2CC[C@@H](C1)N(C(=O)c1cccnc1)C2 | -7 | 1
Cc1ccncc1C(=O)Nc1cccc(C(=O)Nc2c(C)cccc2C)c1 | -14 | 1.76
N#CC1(C(=O)N2CCCc3ccccc32)CCCC1 | -14 | 2.22
COC(=O)N[C@@H](C)C(=O)NCCc1ncnn1C | 1 | -0.12
O=C(COc1ccc(Cl)cc1)Nc1ccc(N2CCOCC2)nc1 | -11 | 1.24
Cc1ccc(NCCCNC(=O)c2cnc3c(c2)CCCC3)nc1 | -12 | 2.44
Cc1noc(C2CCN(C(=O)NCC3CCOC(C(C)C)C3)C2)n1 (stereo not given) | -2 | 0.33
Fc1ccccc1CO[C@H]1CCCNC1 | 1 | -0.12
CC(C)Cc1cn(C2CCN(C(=O)Nc3ccc4c(c3)OCO4)CC2)nn1 | 2 | -0.44
O=C1CCCc2cc(C(=O)NCc3nc(-c4ccco4)n[nH]3)ccc2N1 | 2 | -0.25
CCN1CCC[C@@H]1Cn1cc(-c2ccc(NC(C)=O)cc2)nn1 | 1 | -0.23
Cc1ccc(NC(=O)Cn2cnc(-c3nc(-c4ccccc4)cs3)c2)cc1F | 2 | -0.31
Cc1ccc(-c2noc(-c3nc(C(C)C)no3)n2)cc1 | -15 | 1.35
COc1ccc(CN2CCc3nc(N4CCCC4)ncc3C2)c(OC)c1 | 3 | -0.45
COc1c[nH]c(C(=O)NCc2ccc3nsnc3c2)cc1=O | -1 | 0.1
O=c1ccn(-c2ccc(F)c(F)c2)nc1-c1nc(-c2ccc(Cl)c(F)c2)no1 | 11 | -1.78
Cc1oc(C)c(C(=O)N2CC3CCCC3C2)c1C (stereo not given) | -7 | 0.95
NC[C@H]1CCN(C(=O)c2ccc(-c3ccc(Cl)cc3)cc2F)C1 | 8 | -1.03
Cc1cc(CNS(=O)(=O)c2cnn(C)c2)c(C)o1 | -14 | 2.23

Compound | % Inhibition [%] | Z score
Cn1cnc(NC(=O)c2cccc(CN3CC[C@@H]4CCCC[C@H]4C3)c2)n1 | -4 | 0.56
c1n[nH]cc1CNc1cncc2c1CCCC2 | -1 | 0.23
C[C@@H]1CN(Cc2cc(F)cc(C(F)(F)F)c2)CC(C(N)=O)O1 (stereo not given in full) | -11 | 1.61
Cn1cc([C@@H](c2sc3ncnn3c2O)N2CCOCC2)cn1 | 26 | -2.9
CCCN1C=NS(=O)(=O)c2cc(C(=O)Nc3c(C)cc(C)cc3C)ccc21 | -2 | 0.25
Cc1ccc2c(c1C)N(C(=O)c1ccc(C3OCCO3)cc1)CCC2 | 2 | -0.24
O=C1CCCC(=O)N1CCS(=O)(=O)NCc1cnn2c1CCCC2 | -6 | 1.21
Cc1n[nH]c(C)c1S(=O)(=O)N1CC(C)NC(C)C1 (stereo not given) | -1 | 0.11
C[C@H](NC(=O)[C@H]1CC[C@H](CNS(=O)(=O)c2ccccc2)CC1)C(=O)N1CCN(CCO)CC1 | -11 | 1.22
COc1ccc(N2CCN(C(=O)Cn3nc(C)nc3-c3ccc4ccccc4c3)CC2)cc1 | -5 | 0.79
CCc1noc(C)c1C(=O)N1CCOCc2ccccc21 | 6 | -1.09
O=C(Nc1cccnc1)C(=O)N1CCN(c2ncccn2)CC1 | -9 | 1.03
O=C(Cn1nc2n(c1=O)CCCC2)Nc1ccccc1 | 0 | -0.07
NC(=O)c1ccc(-c2ccc3oc(C4CC4)nc3c2)cc1 | -9 | 1.63
Cc1c(NC(=O)NCC(F)(F)c2cccc(F)c2)nnn1C | -9 | 1.41
CO[C@H]1C[C@@H](N(C)c2ncc(Cl)c(N(C)[C@H]3C[C@@H](OC)C3)n2)C1 | -7 | 1.01
CC(C)(C)OC(=O)N1CCC2(CCC2)[C@@H](C(=O)O)C1 | -7 | 0.73
Cc1ccc(Nc2nc(N)nc(CN3C(=O)NC4(CCCCC4C)C3=O)n2)cc1 (stereo not given) | -8 | 1.24
COc1ccc(CN2C(=O)CO[C@H]3CN(C4CCC4)C[C@H]32)cc1 | -2 | 0.37
O=C(c1cccc(NCCOc2ccccc2)c1)N1CCC[C@H](O)C1 | 3 | -0.49
CC(=O)Nc1ccc(OC[C@H](O)c2ccc(F)cc2)cc1 | -4 | 0.78
Cc1ccsc1-c1nccn1CCNC(=O)c1ccc(F)cc1 | -3 | 0.58
Cc1c(NC(=O)c2cc(O)ncn2)c(=O)n(-c2ccccc2)n1C | -8 | 1.41
OCCn1ccnc1-c1cccc(Oc2ccccc2)c1 | 10 | -0.95
C[C@]1(C(=O)Nc2nccs2)CC1(Cl)Cl | 4 | -0.48
CCN(CC)c1ccc(Nc2ccc3nnnn3n2)cn1 | 0 | 0.04
COCCn1cnnc1CCn1cnc(-c2ccccc2)c1-c1cccc(C#N)c1 | -10 | 1.18
